# About 230 (0.21%) of roughly 110,000 compounds showed an effect of 50% or more. Some of the results follow.
# Target: DPAP1 (Plasmodium falciparum, UniProt Q8IIJ9)
# Assay: primary screen, percent inhibition; read by cleavage of a fluorogenic dipeptide substrate; higher = more effect of the substance
# Design: species or system P. falciparum D10 trophozoite lysates; single well
# 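Note: 30 min substrate incubation versus DMSO and 10 µM JCP410 controls.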
# Sequence of DPAP1 (Q8IIJ9 whole entry, looked up): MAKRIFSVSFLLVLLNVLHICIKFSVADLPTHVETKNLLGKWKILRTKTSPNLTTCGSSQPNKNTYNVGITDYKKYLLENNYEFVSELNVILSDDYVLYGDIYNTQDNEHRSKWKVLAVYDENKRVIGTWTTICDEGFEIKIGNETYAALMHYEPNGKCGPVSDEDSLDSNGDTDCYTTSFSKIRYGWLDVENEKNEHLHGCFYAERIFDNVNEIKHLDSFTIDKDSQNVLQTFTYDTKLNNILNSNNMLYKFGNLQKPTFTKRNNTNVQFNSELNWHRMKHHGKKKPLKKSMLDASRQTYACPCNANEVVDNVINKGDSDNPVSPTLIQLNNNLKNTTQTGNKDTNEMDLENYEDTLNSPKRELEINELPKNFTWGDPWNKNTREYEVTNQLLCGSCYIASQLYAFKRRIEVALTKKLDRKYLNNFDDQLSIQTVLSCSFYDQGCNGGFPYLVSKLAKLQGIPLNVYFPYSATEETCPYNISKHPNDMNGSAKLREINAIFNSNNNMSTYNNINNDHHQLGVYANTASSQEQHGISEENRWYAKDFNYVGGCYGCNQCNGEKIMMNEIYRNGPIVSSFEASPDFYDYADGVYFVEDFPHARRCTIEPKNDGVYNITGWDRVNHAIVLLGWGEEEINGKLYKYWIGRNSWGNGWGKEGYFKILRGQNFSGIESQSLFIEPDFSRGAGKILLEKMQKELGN
row,SMILES,% Inhibition @ 10 uM [%]
1,CCc1cc(=O)oc2c3c(ccc12)OCN(c1cccnc1)C3,4.5
2,CCOc1cccc(NC(=O)c2ccccc2)c1,-1.61
3,CCOc1ccc(C(=O)CC(=O)C(=O)NCc2ccc3c(c2)OCO3)cc1,0.494
4,C=CCN1C(=O)N/C(=C/c2cccn2-c2ccc(Br)cc2)C1=O,1.27
5,Cc1cccn2c(=O)c(/C=C(\C#N)C(=O)N3CCOCC3)c(Oc3ccc(Br)cc3)nc12,-3.23
6,CCCN1CCC(NC(C)CCCC(C)(C)O)CC1 (stereo not drawn),1.83
7,Cc1nc2nc(SCC(=O)NCCCN3CCOCC3)nn2c(C)c1Cc1ccccc1,2.17
8,O=c1c(O)c(-c2ccc(OCc3ccccc3)cc2)oc2ccccc12,1.12
9,CCCc1ccc(-c2nc(NC(=O)CCC(=O)O)sc2C)cc1,1.96
10,COc1cccc(CN(C(=O)c2oc3c(C)c(C)ccc3c2C)C2CCS(=O)(=O)C2)c1 (stereo not drawn),1.82
11,CC(C)NCC(O)COc1c(Cl)ccc2c1OCCO2 (stereo not drawn),3.65
12,Brc1ccc(N2N=C(c3ccccc3)NC2(c2ccccc2)c2ccccc2)c(Br)c1,-6.99
13,OC1CCN(CC2CC3C=CC2C3)CC1 (stereo not drawn),1.62
14,O=C(Cn1ncc2c1-c1ccccc1OC2)NCc1ccccc1,1.08
15,Cc1nn(Cc2ccc(-c3nc(-c4nonc4N)no3)cc2)c(C)c1Cl,-7.55
16,COc1ccc(N2CCN(Cc3cc(Br)c(OC)cc3OC)CC2)cc1,-1.98
17,Cc1ccnc2nc(NC(=O)CN3C(=O)c4ccccc4C3=O)nn12,6.7
18,COc1ccc(CCNC(=O)Cn2nc(C(F)(F)F)c(Br)c2C)cc1OC,0.206
19,CC(NC(=O)c1nc2nc(-c3ccccc3)cc(C(F)(F)F)n2n1)c1ccccc1 (stereo not drawn),4.1
20,CN1C(=O)C(=Cc2cccs2)C(=O)N(C)C1=O,2.6
21,CC(C)(C)NC(=O)CN(Cc1cccc(Cl)c1)S(=O)(=O)c1ccc(Cl)cc1,-2.19
22,CN(C)c1ccc(-c2nocc2C#N)cc1,7.42
23,CSc1nc(C(C)C)ccc1CNC(=O)CC(C)c1ccccc1 (stereo not drawn),-2.5
24,CCn1nc(C)c(C2C(C#N)=C(N)OC3=C2C(=O)CCC3)c1C (stereo not drawn),1.57
25,CC1CCCCC1N1CNc2c(c(=O)n(C)c(=O)n2C)C1 (stereo not drawn),10.6
26,CCOC(=O)/C(C#N)=C1/C=CN(Cc2ccccc2)C=N1,-0.771

row,SMILES,% Inhibition @ 10 uM [%]
1,O=C1C(c2ccncc2)N(CCC2=CCCCC2)C(=O)CN1C1CCCCC1 (stereo not drawn),-3.94
2,Cc1sc(NC(=O)c2cccc(C(F)(F)F)c2)c(C(=O)OC(C)C)c1C,2.8
3,Cc1cc(O)nc(SCC(=O)Nc2c(Cl)cc(Cl)cc2Cl)n1,-5.01
4,CS(=O)(=O)N(CC(=O)NCCc1ccccc1)c1ccc(F)cc1,-0.598
5,COc1ccc(N(Cc2ccc(F)cc2)C(=O)c2ccccc2[N+](=O)[O-])cc1,-3.62
6,CC(C)CNC(=O)c1ccccc1N(C)S(C)(=O)=O,-1.44
7,O=C(COc1ccccc1)N1CCc2ccccc21,2.42
8,Cc1ccc(C2=NC3(CCN(C(=O)c4ccccc4C)CC3)NC2=O)cc1C,2.01
9,COc1ccc(N2CCOCC2)cc1,3.74
10,CC(C)Oc1ccc(C(CC(=O)O)N2C(=O)c3ccccc3C2=O)cc1 (stereo not drawn),-3.07
11,CC(NC(=O)Cc1ccccc1)c1ccc2c(c1)OCCO2 (stereo not drawn),-0.622
12,Cc1n[nH]c(C)c1CCCOc1ccccc1F,-2.18
13,CCNS(=O)(=O)c1cccc2c1C(=O)c1ccccc1C2=O,17.1
14,Cc1cc2nc(O)c(O)nc2cc1S(=O)(=O)N1CCCC(C)C1 (stereo not drawn),6.16
15,CC1CC2(CCCC2)N(C(=O)c2ccccc2)Cc2ccccc21 (stereo not drawn),0.0538
16,N#Cc1ccc(-c2ccc(OCC(N)=O)cc2)cc1,0.324
17,Cc1cc(=O)n2nc(N(C)CC(=O)NCc3ccccc3)sc2n1,-2
18,O=C(COc1ccccc1)Nc1nn2c(-c3ccco3)nnc2s1,4.46
19,Cn1c(C(=O)N2CCc3ccccc3C2)cc2sccc21,-3.08
20,Cc1ccc(C(=O)CCC(=O)NCc2ccc(Cl)cc2)cc1,0.238
21,O=C(Nc1ccc(C(F)(F)F)cc1)c1cc(F)c(Cl)nc1Cl,1.93
22,CCN(CC)C(C(=O)NC1CCCC1)c1ccc(OC)cc1 (stereo not drawn),2.84
23,COCCCN(Cc1ccco1)C(=O)Cn1ncc2c1-c1cc(C)ccc1OC2,-3.5
24,O=C(c1ccccc1)c1ccc2nc(NCCCO)c3nncn3c2c1,-9.3
25,Cc1cccc(C)c1NC(=O)c1ccccc1NC(=O)c1ccccc1,3.93
26,Cc1nc2ccsc2c(=O)n1-c1ccccc1Cl,2.25

row,SMILES,% Inhibition @ 10 uM [%]
1,CC1=C(C(=O)OCC2CCCO2)C(c2ccc(Cl)cc2Cl)CC(=O)N1 (stereo not drawn),2.47
2,COc1ccccc1NS(=O)(=O)c1ccc(Cl)cc1,-8.13
3,Cc1ccsc1CN(C(=O)c1oc2ccc(Cl)cc2c1C)C1CCS(=O)(=O)C1 (stereo not drawn),-2.85
4,CN1CCN(C2CC(=O)N(c3ccc4c(c3)OCCO4)C2=O)CC1 (stereo not drawn),-3.37
5,OC(COc1ccc(C23CC4CC(CC(C4)C2)C3)cc1)CN1CCCCC1 (stereo not drawn),-0.294
6,COC(=O)c1ccc(C(=O)O/N=C(\N)c2ccc(C)n2C)cc1,0.9
7,COCC(C)NC(=O)CCc1ccccc1 (stereo not drawn),-18.8
8,C=CCOc1ccccc1/C=C1/SC(=O)N(CN2CCOCC2)C1=O,-3.63
9,CCN(CCC1=C(C)CCCC1(C)C)CCN(C)C,-5.31
10,CCOC(=O)c1cc2c(n(-c3ccccc3)c1=O)CC(C)(C)CC2=O,-0.13
11,CCOC(=O)N1CCC(N2C(=O)c3ccc(C(=O)NC4CCCC4)cc3C2=O)CC1,-1.03
12,Nc1nnc(SCC(=O)n2c3c(c4c2CCCC4)CCCC3)s1,0.67
13,O=C(NCCc1ccccc1)c1ccc(CS(=O)(=O)c2cccc(C(F)(F)F)c2)o1,2.14
14,O=C(c1cccc(F)c1)N1CCCN(C(=O)c2cccc(F)c2)CC1,-4.7
15,NC(=O)C1(N2CCCCC2)CCN(c2ccc3nnc(-c4ccccc4)n3n2)CC1,-1.37
16,Cn1c(-c2ccc(F)cc2)cnc1NCc1cc(Cl)ccc1O,-2.91
17,OCCn1c(SCCOc2ccccc2)nc2ccccc21,-2.72
18,COc1ccc(-c2nc3cc(C)ccn3c2NC(=O)CC(C)C)cc1,4.77
19,CS(=O)(=O)N(Cc1ccccc1Cl)c1ccc(C(=O)NC2CC3CCC2C3)cc1 (stereo not drawn),4.57
20,CC(Cc1c[nH]c2ccccc12)NC(N)=O (stereo not drawn),-0.128
21,C=CCN1C(=O)S/C(=C\c2ccc(CC)s2)C1=O,-3.32
22,FC(F)(F)c1cccc(N2CCN(Cc3cc(Br)cs3)CC2)c1,-5.41
23,CC12C=CC(O1)C1C(=O)N(c3cccc4ccccc34)C(=O)C12 (stereo not drawn),0.76
24,COc1cccc(CN2CCN(Cc3ccc(OC)c(Br)c3)CC2)c1,-1.8
25,CC1=[N+]([O-])C(C)(C)C(c2ccc(C)o2)=[N+]1[O-],-3.41
26,N#CC(NC(=O)C(CC(=O)N1CCOCC1)CS(=O)(=O)Cc1ccccc1)c1cccs1 (stereo not drawn),-1.83

row,SMILES,% Inhibition @ 10 uM [%]
1,COc1ccccc1C(=O)NCCSCc1ccccc1Cl,-3
2,CC1CCN(C(=O)C(CCS(C)(=O)=O)N2Cc3ccccc3C2=O)CC1 (stereo not drawn),-0.769
3,COc1ccc(NCc2ccc(SC)cc2)cc1OC,-2.02
4,CCN(CC)C(=O)C1CCCN(Cc2cc(F)ccc2F)C1 (stereo not drawn),-1.41
5,O=C(NCc1ccc(C(=O)NC2CCCC2)cc1)c1cccc(Br)c1,1.07
6,CCc1ccc(Oc2nc3c(C)cccn3c(=O)c2/C=C(\C#N)C(=O)NCCCOC(C)C)cc1,2
7,Cc1ccc(C2OC3=C(C(=O)CC(C)(C)C3)C(N)=C2C#N)o1 (stereo not drawn),-4.67
8,COC(=O)C1=C(C)NC(=O)CC1c1cccnc1 (stereo not drawn),-3.63
9,O=S(=O)(c1ccccc1)c1nc(-c2ccc(Br)cc2)oc1N1CCOCC1,-3.04
10,O=C(CN(c1cccc(Cl)c1)S(=O)(=O)c1ccccc1)Nc1ccccc1Cl,-1.55
11,COc1cc(OC)c(C2C(C#N)=C(N)OC3=C2C(=O)CC(C)(C)C3)cc1OC (stereo not drawn),0.746
12,CC(=O)Nc1ccc(NC(=O)CN(c2ccccc2)S(C)(=O)=O)cc1,1.03
13,CCOC(=O)c1c(C)[nH]c(C)c1S(=O)(=O)N(Cc1ccccc1OC)C1CCN(C)CC1,2.58
14,CCCCOC(=O)Nc1nnc(C)s1,-6.69
15,CC(C)C[C@H](NC(=O)N1CCN(C)CC1)C(=O)N[C@@H](CCc1ccccc1)C(=O)COc1ccccc1,-0.778
16,N#Cc1c(NC(=O)CO/N=C/c2ccccc2)sc2c1CCCC2,3.25
17,Cc1ccnc(NS(=O)(=O)c2ccc3[nH]c4c(c3c2)CCCC4)c1,-1.41
18,CCOC(=O)c1[nH]c2ccccc2c1C=O,-0.256
19,CCOC(=O)C1=C(CN(Cc2ccco2)C2CCCC2)NC(=O)NC1c1cccc(OC)c1OC (stereo not drawn),-1.3
20,COc1ccc(C2=NOC(C(=O)NCc3ccc(F)cc3)C2)cc1 (stereo not drawn),-1.7
21,CC1=C(C(=O)Nc2ccc(F)cc2F)C(c2ccc(N(C)C)cc2)C2=C(O)CC(C)(C)CC2=N1 (stereo not drawn),1.82
22,Cc1coc2c(C)c3oc(=O)c(CCC(=O)NCc4ccccc4)c(C)c3cc12,8.61
23,CCOc1cc2c(cc1OCC)C(c1cc(OC)ccc1O)NCC2 (stereo not drawn),0.475
24,C(=C\c1ccccc1)/CSc1nc2ccccc2[nH]1,5.79

# Reference: publication PMC6919601, “Identification of Plasmodium dipeptidyl aminopeptidase allosteric inhibitors by high throughput screening” (PLoS ONE, 2019)
